# In the supplement of paper PMC11417369:
# ± gives the standard deviation of the averaged measurements. The list shows a part of the results.
# Tested on: PfAP2-EXP AP2 domain (GST-tagged)
# Assay: gcPBM binding intensity (ln(normalized median fluorescence intensity)); higher = stronger DNA binding
# Outline: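 Binding intensity is the highest Masliner-normalised natural-log median intensity over replicate spots in either probe orientation. To obtain it, GST-tagged P. falciparum DNA-binding domains made in E. coli were incubated for 1 h on an Agilent 4 × 180k array of primer-extended double-stranded 36-bp intergenic genomic probes plus negative controls. Detection used Alexa488 anti-GST antibody with scanning at 488 nm.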
row,Sequence,gcPBM binding intensity (ln)
1,ATATTGTATTTATGTACACACATTTTTGGAATATGA [CACACA_site4861],9.11 ± 0.53
2,TTTTTTCTCTGTGGCTGTACTTTGAAGATATTTTAT [XGTACX_site8243],8.92 ± 0.42
3,AAAGGTTCACATTATATAGTTATGTAATATATATGT [CACACA_negctrl_site542],8.29 ± 0.4
4,TAAAATATATATATGTGTACATAACATATAATTTTT [XGTACX_site1725],8.12 ± 0.25
5,TTATTTAGTATATTATGTACATACAATGCCTGGGAA [XGTACX_site4578],8.79 ± 0.32
6,TATTGTTGTTCATGTACACACTATAATAAAAGCAAT [CACACA_site6148],8.93 ± 0.39
7,AGTATAAAAATATATTTACACACTATATATATCGAA [CACACA_site8494],8.46 ± 0.44
8,ATATGTTACAGACACACACACACATAAAAAAACAAA [CACACA_site3248],8.84 ± 0.69
9,TTTTCATATTATAGTGCACACAAAAATATATATATG [CACACA_site8929],9.35 ± 0.057
10,TATATTGAATGCAAAAGTACATTTGTGTAAATTTAT [XGTACX_site7611],8.56 ± 0.33
11,TGATGGTTACGTTTATGTACACATTACAGTTAGTAT [XGTACX_site998],8.34 ± 0.42
12,TTTTTTTTTTTAAAATGTACACGTAATTACATATAT [XGTACX_site752],8.63 ± 0.42
13,TTTTTGTATTCTACCTTAACAATCTTAAAGATTTTT [CACACA_negctrl_site1157],8.56 ± 0.34
14,GAGTTAATATTTAAAAGTACAAGATGAATGTAAAAA [XGTACX_site5810],8.76 ± 0.46
15,AAAATATATTAAGGCACACACATACATATATATATA [CACACA_site3723],9.86 ± 0.18
16,TTAAAAATTATATAAGTGCATTAATATTTAGAACAA [GTGCAC_site9773],8.71 ± 0.028
17,ACTACATTATTGCATTGTACTTTTTTTTTTTTTTTA [XGTACX_site4605],8.82 ± 0.4
18,TACTTACCAAAATACACACACACACCCAATATATAA [CACACA_site1871],8.62 ± 0.51
19,TTAAAAATATATGAATGTACATATATTTATATATAT [XGTACX_site77],8.5 ± 0.099
20,TTTAAATTATGAAATTGTACATATAAAAATATTTTA [XGTACX_site4796],8.39 ± 0.3
21,TTTTTTTTATTAGTGTGTACGCATTTATTTATACAT [XGTACX_site1599],8.86 ± 0.33
22,TATATATTATTTAAAACACACAAAAAAAAAAATTAT [CACACA_site89],8.55 ± 0.45
23,ATATCGGGTGCATTAACACACATTTATTTGAATAAA [CACACA_site2350],9.28 ± 1

row,Sequence,gcPBM binding intensity (ln)
1,TAAAATATAATAAAATGTACACGCATGCAATAGAAT [XGTACX_site7434],9.99 ± 0.47
2,GCTTCTTAGTATACTTTATAAAATATATATTAAATA [XGTACX_negctrl_site57],8.75 ± 0.47
3,ATATTAAATATAATTTGTACGCATTTTTTTTTTTTT [XGTACX_site1910],8.46 ± 0.35
4,TTTATAAATATATATACACACACATATATATTATAT [CACACA_site8099],8.42 ± 0.38
5,ATATATCATAATAGAGGTACACATATTATATATATA [XGTACX_site782],8.96 ± 0.17
6,TTCCCTTTTTTTATTTGTACTTATCTTTTAAATAAT [XGTACX_site2497],8.99 ± 0.47
7,AATTATAATTAATAGAGTACTGAATATATATATATA [XGTACX_site8683],10 ± 0.33
8,AGCATTTTTCATTTTGCACACATGTTTTATGTGTAT [CACACA_site3454],9.025 ± 0.007
9,AAAAAAAAAAAAAAGACACACATATATATATATATA [CACACA_site633],10 ± 0.31
10,AATATTACAAAATATTGTCCGTACAAATTTTTAATA [XGTACX_site8129],8.31 ± 0.3
11,GATGATAAAATATGTACACACAGTTTATACATTTTG [CACACA_site4055],8.37 ± 0.23
12,TCTGTTAATATTTATACACACATATTTATTTATATA [CACACA_site6658],8.54 ± 0.33
13,ATTTTGAAAAATAAAAGTACATATAATATATCTACA [XGTACX_site7185],8.1 ± 0.071
14,TTAACATATTATAAGTGTACATATTTATAAACAAGA [XGTACX_site8806],8.62 ± 0.46
15,ATATACATATATATGGGTACATATATTAATATATAT [XGTACX_site8358],8.48 ± 0.34
16,TTTAGATATATGGTAGTGCATAATAAAAATATAGCC [GTGCAC_site9449],8.755 ± 0.064
17,CACTCCATATTATACACACACACAAATGAAAAAAAT [CACACA_site3019],8.91 ± 0.37
18,TTAATAAACCTTAGATGTACAGTTATATATAAAATA [XGTACX_site6681],8.54 ± 0.52
19,ATATATATATATATATGTACACATATATGTGTTTGT [XGTACX_site62],10.1 ± 0.26
20,TGAACTCACGAGCACACACACACATATATATATATA [CACACA_site8248],10.2 ± 0.34
21,ATACAATAAAGGTGTACACATATATGATGCAAGATG [CACACA_site5897],9.21 ± 0.34
22,ATATATATTTTTTAATGTACTTATATTTTTATAATA [XGTACX_site2103],8.47 ± 0.26
